Reference: PMC10466050, “A comparative study of human and zebrafish glucocorticoid receptor activities of natural and pharmaceutical steroids” (Frontiers in Endocrinology, 2023)

Key:
[1] = biological target: zfGR (Danio rerio, UniProt Q1XHK0); assay: Antagonistic activity assessment in presence of 3 nM dexamethasone, UMLN-zfGR cells; assay type: cell-based, zebrafish
[2] = biological target: T1, hGR (Homo sapiens, UniProt P04150); details: HMLN-hGR; with 3 nM dexamethasone; % of maximal luciferase activity induced by 100 nM dexamethasone; at 10^-5M
T1 sequence (P04150 1-777): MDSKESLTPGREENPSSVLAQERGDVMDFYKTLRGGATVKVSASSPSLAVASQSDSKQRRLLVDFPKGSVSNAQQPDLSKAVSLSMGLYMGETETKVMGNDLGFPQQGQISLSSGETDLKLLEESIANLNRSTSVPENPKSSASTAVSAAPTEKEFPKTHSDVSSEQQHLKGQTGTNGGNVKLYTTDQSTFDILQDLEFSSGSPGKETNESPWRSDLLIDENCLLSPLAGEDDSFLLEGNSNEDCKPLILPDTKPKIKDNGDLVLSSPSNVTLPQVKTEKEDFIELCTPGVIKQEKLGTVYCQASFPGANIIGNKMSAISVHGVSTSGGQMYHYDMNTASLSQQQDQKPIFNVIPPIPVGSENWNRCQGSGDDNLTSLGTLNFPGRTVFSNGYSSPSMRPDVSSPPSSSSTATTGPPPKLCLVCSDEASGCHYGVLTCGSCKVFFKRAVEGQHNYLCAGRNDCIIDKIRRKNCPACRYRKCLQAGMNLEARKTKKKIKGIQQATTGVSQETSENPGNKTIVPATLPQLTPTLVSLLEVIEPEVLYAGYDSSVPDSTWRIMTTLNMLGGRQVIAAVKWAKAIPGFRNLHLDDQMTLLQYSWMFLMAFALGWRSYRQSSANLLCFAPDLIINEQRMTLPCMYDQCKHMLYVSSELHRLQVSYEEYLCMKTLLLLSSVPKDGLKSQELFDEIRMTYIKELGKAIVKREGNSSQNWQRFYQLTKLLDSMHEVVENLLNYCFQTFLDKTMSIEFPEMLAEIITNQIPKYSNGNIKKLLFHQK

| IC50 ([1]; read-out: IC50) | SMILES | % min act (minimal activity) ([1]; UMLN-zfGR, with 3 nM dexamethasone, % of maximal luciferase activity induced by 100 nM dexamethasone, at 10^-5M) | % min act (minimal activity) [2] |
| --- | --- | --- | --- |
|  | CC#C[C@]1(O)CC[C@H]2[C@@H]3CCC4=CC(=O)CCC4=C3[C@@H](c3ccc(N(C)C)cc3)C[C@@]21C [mifepristone] | 30 ± 6% | 11 ± 2% |
| 3.16 µM | CCOC1=CC2=C(C)CC3C(C(O)CC4(C)C3CC(C)C43OCOC34COCO4)C2(C)CC1 (stereo not drawn) [forbimenol] |  |  |
